# From the supplement of paper PMC12217912
# This is one part of the list. The full chains were built here from the parent and the listed change. Values near 0.05 are background.
# B1: TEV protease; numbered along this chain (parent)
# chain: MGESLFKGPRDYNPISSSICHLTNESDGHTTSLYGIGFGPFIITNKHLFRRNNGTLVVQSLHGVFKVKDTTTLQQHLVDGRDMIIIRMPKDFPPFPQKLKFREPQREERICLVTTNFQTKSMSSMVSDTSCTFPSGDGIFWKHWIQTKDGQCGSPLVSTRDGFIVGIHSASNFTNTNNYFTSVPKNFMELLTNQEAQQWVSGWRLNADSVLWGGHKVFMVKPEEPFQPVKEATQL
# Variants of: B1
# Assay: raw area under fraction-flipped curve 0-4 h after induction (AUC4h, not background-subtracted), DNA-recorder readout of cleavage of the substrate (dimensionless); higher = more cleavage of the substrate by the protease variant
# Details: temperature: 34 °C; time window: 0-4 h after rhamnose induction
# Procedure: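 In vivo DNA recorder in E. coli TOP10(DE3) ΔrhaA at 34 °C. Each TEVp single-site mutant (parent TEVp 0) is paired with a single-site variant of the 7-mer TEVs (canonical ENLYFQ|S). The substrate sits between flexible linkers in a Bxb1-sfGFP-TEVs-SsrA fusion, so cleavage stabilises Bxb1 and speeds flipping of a recombination array, read by NGS. The value is the raw area under the fraction-flipped curve over 0-4 h after rhamnose induction (AUC4h), with ≥20 reads per time point. It is not background-subtracted; inactive controls average about 0.047.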
# 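Further: Bxb1 expression induced with 0.2% (w/v) L-rhamnose at OD600 near 0.5, cultures sampled hourly, flipped fraction per protease–substrate barcode pair counted by paired-end Illumina sequencing.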
Variant,area with substrate ENAYFQS,area with substrate ENCYFQS,area with substrate ENDYFQS,area with substrate ENEYFQS,area with substrate ENFYFQS,area with substrate ENGYFQS,area with substrate ENHYFQS,area with substrate ENIYFQS,area with substrate ENMYFQS,area with substrate ENNYFQS,area with substrate ENPYFQS,area with substrate ENQYFQS,area with substrate ENSYFQS,area with substrate ENTYFQS,area with substrate ENVYFQS,area with substrate ENYYFQS,area with substrate ENRYFQS,area with substrate ENKYFQS,area with substrate ENWYFQS
MGESLFKGPRDYNPISSSICHLTNESDGHTTSLYGIGFGPFIITNKHLFRRNNGTLVVQSLHGVFKVKDTTTLQQHLVDGRDMIIIRMPKDFPPFPQKLKFREPQREERICLVTTNFQTKSMSSMVSDTSCTFPSGDGIFWKHWIQTKDGQCGSPLVSTRDMFIVGIHSASNFTNTNNYFTSVPKNFMELLTNQEAQQWVSGWRLNADSVLWGGHKVFMVKPEEPFQPVKEATQL [G162M],0.0553,0.0611,0.0561,0.0482,0.0477,0.046,0.0687,0.088,0.0715,0.0583,0.0212,0.0637,0.0989,0.0653,0.0611,0.0672,–,–,–
MGESLFKGPRDYNPISSSICHLTNESDGHTTSLYGIGFGPFIITNKHLFRRNNGTLVVQSLHGVFKVKDTTTLQQHLVDGRDMIIIRMPKDFPPFPQKLKFREPQREERICLVTTNFQTKSMSSMVSDTSCTFPSGDGIFWKHWIQTKDGQCGSPLVSTRDGFCVGIHSASNFTNTNNYFTSVPKNFMELLTNQEAQQWVSGWRLNADSVLWGGHKVFMVKPEEPFQPVKEATQL [I164C],0.0583,0.0834,0.0651,0.0534,0.0552,0.0607,0.0618,0.102,0.0727,0.0579,0.0885,0.0561,0.0607,0.0421,0.0733,–,0.0528,–,–
MGESLFKGPRDYNPISSSICHLTNESDGHTTSLYGIGFGPFIITNKHLFRRNNGTLVVQSLHGVFKVKDTTTLQQHLVDGRDMIIIRMPKDFPPFPQKLKFREPQREERICLVTTNFQTKSMSSMVSDTSCTFPSGDGIFWKHWIQTKDGQCGSPLVSTRDGFIVVIHSASNFTNTNNYFTSVPKNFMELLTNQEAQQWVSGWRLNADSVLWGGHKVFMVKPEEPFQPVKEATQL [G166V],0.045,0.0535,0.0619,0.0433,0.0558,0.0515,0.0552,–,–,0.0494,0.0638,0.0561,0.0502,0.0539,0.063,–,–,–,–
MGESLFKGPRDYNPISSSICHLTNESDGHTTSLYGIGFGPFIITNKHLFRRNNGTLVVQSLHGVFKVKDTTTLQQHLVDGRDMIIIRMPKDFPPFPQKLKFREPQREERICLVTTNFQTKSMSSMVSDTSCTFPSGDGIFWKHWIQTKDGQCGSPLVSTRDGFIVRIHSASNFTNTNNYFTSVPKNFMELLTNQEAQQWVSGWRLNADSVLWGGHKVFMVKPEEPFQPVKEATQL [G166R],0.0569,0.0604,0.0543,0.0811,0.0553,0.0461,0.0546,0.0543,–,0.0499,–,0.0537,0.0452,–,0.0539,–,–,0.0625,0.054
MGESLFKGPRDYNPISSSICHLTNESDGHTTSLYGIGFGPFIITNKHLFRRNNGTLVVQSLHGVFKVKDTTTLQQHLVDGRDMIIIRMPKDFPPFPQKLKFREPQREERICLVTTNFQTKSMSSMVSDTSCTFPSGDGIFWKHWIQTKDGQCGSPLVSTRDGRIVGIHSASNFTNTNNYFTSVPKNFMELLTNQEAQQWVSGWRLNADSVLWGGHKVFMVKPEEPFQPVKEATQL [F163R],0.0638,0.112,0.0539,0.0602,0.0635,0.0584,0.0409,0.0847,0.0806,0.0629,–,–,0.0601,0.0631,0.0878,0.0701,0.0688,–,–
MGESLFKGPRDYNPISSSICHLTNESDGHTTSLYGIGFGPFIITNKHLFRRNNGTLVVQSLHGVFKVKDTTTLQQHLVDGRDMIIIRMPKDFPPFPQKLKFREPQREERICLVTTNFQTKSMSSMVSDTSCTFPSGDGIFWKHWIQTKDGQCGSWLVSTRDGFIVGIHSASNFTNTNNYFTSVPKNFMELLTNQEAQQWVSGWRLNADSVLWGGHKVFMVKPEEPFQPVKEATQL [P155W],0.0641,0.0514,0.0598,0.0709,0.0671,0.0564,–,0.0634,0.0685,0.0364,–,0.0568,0.0609,0.0346,0.0422,0.0589,–,0.0959,0.0515
MGESLFKGPRDYNPISSSICHLTNESDGHTTSLYGIGFGPFIITNKHLFRRNNGTLVVQSLHGVFKVKDTTTLQQHLVDGRDMIIIRMPKDFPPFPQKLKFREPQREERICLVTTNFQTKSMSSMVSDTSCTFPSGDGIFWKHWIQTKDGQCGSALVSTRDGFIVGIHSASNFTNTNNYFTSVPKNFMELLTNQEAQQWVSGWRLNADSVLWGGHKVFMVKPEEPFQPVKEATQL [P155A],0.0599,0.0621,0.06,0.0489,0.0687,0.0763,0.0555,0.153,–,0.0646,0.0593,0.0555,0.0629,0.0636,0.0884,–,–,0.0305,0.0555
MGESLFKGPRDYNPISSSICHLTNESDGHTTSLYGIGFGPFIITNKHLFRRNNGTLVVQSLHGVFKVKDTTTLQQHLVDGRDMIIIRMPKDFPPFPQKLKFREPQREERICLVTTNFQTKSMSSMVSDTSCTFPSGDGIFWKHWIQTKDGQCGSLLVSTRDGFIVGIHSASNFTNTNNYFTSVPKNFMELLTNQEAQQWVSGWRLNADSVLWGGHKVFMVKPEEPFQPVKEATQL [P155L],0.0547,0.0505,0.0393,0.0515,0.0475,0.0523,0.0542,0.0519,0.0514,0.055,0.0479,0.0567,0.0485,–,0.0847,–,0.0491,0.0621,–
MGESLFKGPRDYNPISSSICHLTNESDGHTTSLYGIGFGPFIITNKHLFRRNNGTLVVQSLHGVFKVKDTTTLQQHLVDGRDMIIIRMPKDFPPFPQKLKFREPQREERICLVTTNFQTKSMSSMVSDTSCTFPSGDGIFWKHWIQTKDGQCGSSLVSTRDGFIVGIHSASNFTNTNNYFTSVPKNFMELLTNQEAQQWVSGWRLNADSVLWGGHKVFMVKPEEPFQPVKEATQL [P155S],0.053,0.0615,0.0527,0.0505,0.0629,0.049,0.0552,0.0494,0.048,0.0627,0.0588,0.0503,0.0559,0.0532,0.0478,0.0441,0.0584,0.0482,0.0569
MGESLFKGPRDYNPISSSICHLTNESDGHTTSLYGIGFGPFIITNKHLFRRNNGTLVVQSLHGVFKVKDTTTLQQHLVDGRDMIIIRMPKDFPPFPQKLKFREPQREERICLVTTNFQTKSMSSMVSDTSCTFPSGDGIFWKHWIQTKDGQSGSPLVSTRDGFIVGIHSASNFTNTNNYFTSVPKNFMELLTNQEAQQWVSGWRLNADSVLWGGHKVFMVKPEEPFQPVKEATQL [C152S],0.0546,–,0.0554,0.0636,–,0.0665,0.0598,–,0.0576,0.074,–,0.0639,0.069,–,0.0654,0.0496,0.0407,0.0564,–
MGESLFKGPRDYNPISSSICHLTNESDGHTTSLYGIGFGPFIITNKHLFRRNNGTLVVQSLHGVFKVKDTTTLQQHLVDGRDMIIIRMPKDFPPFPQKLKFREPQREERICLVTTNFQTKSMSSMVSDTSCTFPSGDGIFWKHWIQTKDGQCGSPLVSTRDGFIVGIHFASNFTNTNNYFTSVPKNFMELLTNQEAQQWVSGWRLNADSVLWGGHKVFMVKPEEPFQPVKEATQL [S169F],0.0571,–,0.0473,0.0549,0.0457,0.0874,0.0621,0.051,0.057,0.0488,–,0.0677,0.0599,–,–,–,0.0554,–,0.0485
MGESLFKGPRDYNPISSSICHLTNESDGHTTSLYGIGFGPFIITNKHLFRRNNGTLVVQSLHGVFKVKDTTTLQQHLVDGRDMIIIRMPKDFPPFPQKLKFREPQREERICLVTTNFQTKSMSSMVSDTSCTFPSGDGIFWKHWIQTKDGQCGSPLVSTRDGFIVGIWSASNFTNTNNYFTSVPKNFMELLTNQEAQQWVSGWRLNADSVLWGGHKVFMVKPEEPFQPVKEATQL [H168W],0.0596,0.058,0.0611,0.0594,0.051,0.0628,0.0629,–,0.0543,0.0622,–,0.0683,0.0591,0.0564,–,0.054,0.0535,0.0316,–
MGESLFKGPRDYNPISSSICHLTNESDGHTTSLYGIGFGPFIITNKHLFRRNNGTLVVQSLHGVFKVKDTTTLQQHLVDGRDMIIIRMPKDFPPFPQKLKFREPQREERICLVTTNFQTKSMSSMVSDTSCTFPSGDGIFWKHWIQTKDGQCGSPLVSTRDGFIVGWHSASNFTNTNNYFTSVPKNFMELLTNQEAQQWVSGWRLNADSVLWGGHKVFMVKPEEPFQPVKEATQL [I167W],0.0655,0.0559,0.0619,0.0584,0.0645,0.0642,0.0531,–,0.0687,0.0505,–,0.0492,0.0618,0.0595,0.0576,–,0.0565,–,0.0542
MGESLFKGPRDYNPISSSICHLTNESDGHTTSLYGIGFGPFIITNKHLFRRNNGTLVVQSLHGVFKVKDTTTLQQHLVDGRDMIIIRMPKDFPPFPQKLKFREPQREERICLVTTNFQTKSMSSMVSDTSCTFPSGDGIFWKHWIQTKDGQCGSPLVSTRCGFIVGIHSASNFTNTNNYFTSVPKNFMELLTNQEAQQWVSGWRLNADSVLWGGHKVFMVKPEEPFQPVKEATQL [D161C],0.0567,0.039,0.0508,0.0578,0.0497,0.0352,0.056,0.0698,0.0586,0.0617,0.0496,0.0604,0.0543,0.0525,0.0566,0.057,0.0517,0.0584,–
MGESLFKGPRDYNPISSSICHLTNESDGHTTSLYGIGFGPFIITNKHLFRRNNGTLVVQSLHGVFKVKDTTTLQQHLVDGRDMIIIRMPKDFPPFPQKLKFREPQREERICLVTTNFQTKSMSSMVSDTSCTFPSGDGIFWKHWIQTKDGQCGSPLVSTRFGFIVGIHSASNFTNTNNYFTSVPKNFMELLTNQEAQQWVSGWRLNADSVLWGGHKVFMVKPEEPFQPVKEATQL [D161F],0.055,0.0546,0.0615,0.0588,0.0597,–,0.0552,–,–,–,0.0425,0.0544,0.0608,0.0469,–,0.0486,0.0488,0.0446,–
MGESLFKGPRDYNPISSSICHLTNESDGHTTSLYGIGFGPFIITNKHLFRRNNGTLVVQSLHGVFKVKDTTTLQQHLVDGRDMIIIRMPKDFPPFPQKLKFREPQREERICLVTTNFQTKSMSSMVSDTSCTFPSGDGIFWKHWIQTKDGQCGSPLVSTRKGFIVGIHSASNFTNTNNYFTSVPKNFMELLTNQEAQQWVSGWRLNADSVLWGGHKVFMVKPEEPFQPVKEATQL [D161K],0.0541,0.0525,0.0576,0.0547,0.0455,0.0711,0.0558,0.0632,0.0535,0.0557,–,0.067,0.0623,0.0905,–,0.0484,0.0631,0.0354,0.0471
MGESLFKGPRDYNPISSSICHLTNESDGHTTSLYGIGFGPFIITNKHLFRRNNGTLVVQSLHGVFKVKDTTTLQQHLVDGRDMIIIRMPKDFPPFPQKLKFREPQREERICLVTTNFQTKSMSSMVSDTSCTFPSGDGIFWKHWIQTKDGQCGSPWVSTRDGFIVGIHSASNFTNTNNYFTSVPKNFMELLTNQEAQQWVSGWRLNADSVLWGGHKVFMVKPEEPFQPVKEATQL [L156W],0.0502,0.0624,0.0591,0.0663,0.0618,0.0561,0.0573,0.0516,0.056,0.0567,0.0505,0.0623,0.0591,0.0603,0.067,0.0535,0.0572,0.0597,0.0322
